Assay results taken from publication PMC4336329 (PLoS ONE, 2015).
About 2,200 (0.71%) of roughly 310,000 compounds showed an effect of 50% or more. The effect is printed as a negative number. The list shows a part of the results.

Target: human ether-à-go-go-related gene (hERG) potassium channel (human, UniProt Q12809)
Assay: primary screen, population patch clamp on CHO cells stably expressing hERG

Chain of human ether-à-go-go-related gene (hERG) potassium channel (Q12809 whole entry, looked up): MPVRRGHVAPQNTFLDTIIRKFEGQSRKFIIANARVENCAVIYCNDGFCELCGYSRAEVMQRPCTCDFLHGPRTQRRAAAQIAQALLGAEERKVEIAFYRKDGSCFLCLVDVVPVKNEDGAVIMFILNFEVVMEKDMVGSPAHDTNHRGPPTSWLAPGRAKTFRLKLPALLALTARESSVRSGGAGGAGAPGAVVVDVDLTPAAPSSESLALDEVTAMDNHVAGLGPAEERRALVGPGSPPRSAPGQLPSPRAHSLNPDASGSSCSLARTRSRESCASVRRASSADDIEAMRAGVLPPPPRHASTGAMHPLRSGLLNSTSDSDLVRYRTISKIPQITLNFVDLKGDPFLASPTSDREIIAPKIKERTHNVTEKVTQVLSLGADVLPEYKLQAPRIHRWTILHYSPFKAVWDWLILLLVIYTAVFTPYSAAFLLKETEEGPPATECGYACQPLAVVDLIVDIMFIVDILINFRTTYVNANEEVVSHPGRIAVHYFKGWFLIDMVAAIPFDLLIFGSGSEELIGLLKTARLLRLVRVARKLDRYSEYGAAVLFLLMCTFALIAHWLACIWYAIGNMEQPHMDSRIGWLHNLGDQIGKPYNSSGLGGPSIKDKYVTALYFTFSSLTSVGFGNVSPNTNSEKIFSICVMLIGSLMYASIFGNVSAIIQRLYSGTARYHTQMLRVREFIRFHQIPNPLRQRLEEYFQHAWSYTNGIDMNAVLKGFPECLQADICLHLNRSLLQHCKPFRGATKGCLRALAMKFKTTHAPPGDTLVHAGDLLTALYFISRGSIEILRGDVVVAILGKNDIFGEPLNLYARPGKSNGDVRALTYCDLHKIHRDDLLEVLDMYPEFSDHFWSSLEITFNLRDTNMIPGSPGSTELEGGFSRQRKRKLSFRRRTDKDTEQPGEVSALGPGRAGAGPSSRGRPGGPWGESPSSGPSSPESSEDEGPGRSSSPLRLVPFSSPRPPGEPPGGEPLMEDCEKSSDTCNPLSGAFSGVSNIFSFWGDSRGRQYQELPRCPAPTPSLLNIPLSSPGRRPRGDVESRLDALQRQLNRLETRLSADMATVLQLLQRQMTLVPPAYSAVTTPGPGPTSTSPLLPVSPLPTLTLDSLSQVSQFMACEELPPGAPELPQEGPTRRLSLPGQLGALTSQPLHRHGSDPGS

Question: For `Cc1n[nH]c(C)c1CCCCOc1ccc([N+](=O)[O-])cc1`, which “hERG current change (%, negative = inhibition) at 1uM” value is on record?
Answer: 2.09%

Question: With `O=C(NCCCn1ccnc1)/C(=C/c1cccs1)NC(=O)c1ccco1` as the compound, how does the “hERG current change (%, negative = inhibition) at 1uM” value read?
Answer: -2.88%

Question: How did the “hERG current change (%, negative = inhibition) at 1uM” value turn out when `O=C(COC(=O)c1ccc(CSc2ccc(Cl)cc2)cc1)Nc1ccccc1` was run?
Answer: 11%

Question: For `CN(C)Cc1ccc(CNC(=O)COc2ccc3ccccc3c2)cc1`, which “hERG current change (%, negative = inhibition) at 1uM” value is on record?
Answer: 15.1%

Question: Which “hERG current change (%, negative = inhibition) at 1uM” value does the source give for `Cc1ccccc1N(C(=O)Cc1cccs1)C(C(=O)NCC1CCCO1)c1cccnc1` (centres unmarked) here?
Answer: -4.45%

Question: How did the “hERG current change (%, negative = inhibition) at 1uM” value turn out when `CCOC(=O)C1(Cc2cccc(OC)c2)CCN(C/C=C/c2ccccc2)CC1` was run?
Answer: -42.2%

Question: Which “hERG current change (%, negative = inhibition) at 1uM” value does the source give for `COc1ccc(CNC(=O)COC(=O)/C=C/c2cccs2)cc1` here?
Answer: 13.4%

Question: For `Cc1cc(N)c2ccccc2n1`, which “hERG current change (%, negative = inhibition) at 1uM” value is on record?
Answer: -7.19%

Question: How did the “hERG current change (%, negative = inhibition) at 1uM” value turn out when `Cc1cccc(C)c1OCc1nnc(SCC(=O)Nc2nccs2)n1-c1ccccc1` was run?
Answer: 2.84%

Question: For `Cc1ccccc1NC(=O)CC1SCCNC1=O` (centres unmarked), which “hERG current change (%, negative = inhibition) at 1uM” value is on record?
Answer: 6.98%

Question: How did the “hERG current change (%, negative = inhibition) at 1uM” value turn out when `COC(=O)c1ccccc1Oc1ccc(NC(=O)CCCl)cc1` was run?
Answer: 14.1%

Question: With `NS(=O)(=O)c1cccc(NC(=O)Nc2ccccc2)c1` as the compound, how does the “hERG current change (%, negative = inhibition) at 1uM” value read?
Answer: 4.02%

Question: For `C/C=C/c1ccc(OCC(O)CNCCc2ccc(OC)cc2)c(OC)c1.O=C(O)C(=O)O` (centres unmarked), which “hERG current change (%, negative = inhibition) at 1uM” value is on record?
Answer: -37.2%

Question: For `CSc1ccccc1C(=O)NC1CCCc2ccccc21` (centres unmarked), which “hERG current change (%, negative = inhibition) at 1uM” value is on record?
Answer: 8.88%

Question: For `CCCC(=O)Nc1cccc(NC(=O)c2ccc(C)c([N+](=O)[O-])c2)c1`, which “hERG current change (%, negative = inhibition) at 1uM” value is on record?
Answer: 6.66%

Question: Which “hERG current change (%, negative = inhibition) at 1uM” value does the source give for `OC(c1ccc(OCc2ccccc2)cc1)c1nnc(-c2ccccc2)o1` (centres unmarked) here?
Answer: 3.77%

Question: `COc1ccc(C(=O)OCC(=O)NC(C)CCc2ccccc2)cc1OC` (centres unmarked) was tested. Which “hERG current change (%, negative = inhibition) at 1uM” value did it give?
Answer: 13.1%

Question: With `O=c1c2ccccc2nc2n1C1(CCCCC1)Cc1ccccc1-2` as the compound, how does the “hERG current change (%, negative = inhibition) at 1uM” value read?
Answer: -0.0666%

Question: `O=C(COC(=O)c1cc([N+](=O)[O-])ccc1N1CCOCC1)c1ccc(Br)cc1` was tested. Which “hERG current change (%, negative = inhibition) at 1uM” value did it give?
Answer: -12.4%

Question: With `C=CCn1c(SCC)nc(O)cc1=O` as the compound, how does the “hERG current change (%, negative = inhibition) at 1uM” value read?
Answer: -5.75%

Question: How did the “hERG current change (%, negative = inhibition) at 1uM” value turn out when `COc1ccc(NC(=O)CN2C(=O)NC3(CC(C)CC(C)(C)C3)C2=O)cc1S(=O)(=O)N1CCCCC1` (centres unmarked) was run?
Answer: -3.09%

Question: With `CNC(=O)OCCc1n(C)cc[n+]1C.[I-]` as the compound, how does the “hERG current change (%, negative = inhibition) at 1uM” value read?
Answer: 15.1%

Question: How did the “hERG current change (%, negative = inhibition) at 1uM” value turn out when `COc1ccc(CN=C(N)N=C(N)N)cc1Cl.Cl` was run?
Answer: 10.4%

Question: `CCC(=O)Oc1c(C(=O)CC)cc2c(C)cc(=O)oc2c1C` was tested. Which “hERG current change (%, negative = inhibition) at 1uM” value did it give?
Answer: 11.4%

Question: With `Nc1ccccc1-c1nnn(CC(=O)N2CCCc3ccccc32)n1` as the compound, how does the “hERG current change (%, negative = inhibition) at 1uM” value read?
Answer: 11.9%

Question: How did the “hERG current change (%, negative = inhibition) at 1uM” value turn out when `O=c1ccn(-c2cccc(C(F)(F)F)c2)nc1-c1ccn(-c2ccccc2)n1` was run?
Answer: 7.69%

Question: `COc1ccc(NC(=O)CSc2c(C)n[nH]c2C)cc1` was tested. Which “hERG current change (%, negative = inhibition) at 1uM” value did it give?
Answer: -12.8%

Question: For `CCOCC(=O)N1CCN(Cc2ccc3c(c2)OCO3)CC1`, which “hERG current change (%, negative = inhibition) at 1uM” value is on record?
Answer: 9.95%

Question: For `CCOC(=O)C1CCCN(C(=O)C2CCC(CNS(=O)(=O)c3ccc(NC(C)=O)cc3)CC2)C1` (centres unmarked), which “hERG current change (%, negative = inhibition) at 1uM” value is on record?
Answer: 11.4%

Question: Which “hERG current change (%, negative = inhibition) at 1uM” value does the source give for `O=C(NCc1ccccn1)c1cc(-c2ccccc2Cl)on1` here?
Answer: 5.1%

Question: `Cc1cc(NC(=O)C(C)SCC(=O)Nc2cc(C(F)(F)F)ccc2N2CCOCC2)no1` (centres unmarked) was tested. Which “hERG current change (%, negative = inhibition) at 1uM” value did it give?
Answer: -0.415%

Question: `COc1ccc([C@H]2/C=C\CN(C(=O)C3CCCC3)[C@@H](C)C(=O)N2Cc2ccc(F)cc2)cc1` was tested. Which “hERG current change (%, negative = inhibition) at 1uM” value did it give?
Answer: -2.54%

Question: Which “hERG current change (%, negative = inhibition) at 1uM” value does the source give for `CC(C(=O)NC(C)(C)C)N(C(=O)CS(=O)CC(=O)Nc1ccc(F)cc1)C1CCCC1` (centres unmarked) here?
Answer: 13.9%

Question: For `COc1cc(NC(=O)C2CC(c3c(F)cccc3Cl)=NO2)c(OC)cc1Cl` (centres unmarked), which “hERG current change (%, negative = inhibition) at 1uM” value is on record?
Answer: 12.7%

Question: With `CCCCC(=O)Nc1nnc(-c2ccco2)o1` as the compound, how does the “hERG current change (%, negative = inhibition) at 1uM” value read?
Answer: 6.67%

Question: For `CCNC(=O)N1CCCC(C(=O)c2ccc(OC)c(OC)c2)C1` (centres unmarked), which “hERG current change (%, negative = inhibition) at 1uM” value is on record?
Answer: 15.7%

Question: `COc1ccc(S(=O)(=O)N2CCC(N3CCN(c4ccccc4)CC3)CC2)cc1` was tested. Which “hERG current change (%, negative = inhibition) at 1uM” value did it give?
Answer: -1.3%

Question: With `CCOC(=O)CN1CCS(=O)(=O)CC1` as the compound, how does the “hERG current change (%, negative = inhibition) at 1uM” value read?
Answer: 12.6%

Question: `N#CCC(=O)Nc1ccc(C(=O)OCC(=O)Nc2ccccc2-c2ccccc2)cc1` was tested. Which “hERG current change (%, negative = inhibition) at 1uM” value did it give?
Answer: 11.8%

Question: Which “hERG current change (%, negative = inhibition) at 1uM” value does the source give for `O=C(O)/C=C/C(=O)Nc1ccc(C(=O)c2ccccc2)cc1` here?
Answer: 12.8%

Question: Which “hERG current change (%, negative = inhibition) at 1uM” value does the source give for `O=S(=O)(Nc1ccccc1N1CCOCC1)c1ccc(Cl)s1` here?
Answer: -2.7%

Question: For `Cc1ccccc1N(CC(=O)NC1CCCC1)C(=O)c1csnn1`, which “hERG current change (%, negative = inhibition) at 1uM” value is on record?
Answer: 6.41%

Question: Which “hERG current change (%, negative = inhibition) at 1uM” value does the source give for `CN(C(=O)CN1C(=O)S/C(=C\c2ccccc2F)C1=O)C1CCS(=O)(=O)C1` (centres unmarked) here?
Answer: 12.8%

Question: `CS(=O)(=O)Nc1ccccc1C(=O)Nc1cccc(Cl)c1` was tested. Which “hERG current change (%, negative = inhibition) at 1uM” value did it give?
Answer: 2.66%
